Experimental data reported in the supplement of paper PMC3334620.
The full ranking holds about 33,000 sequences; the median of “E-score (-0.5 to 0.5)” is about -0.04, and the highest 2% start at about 0.36. This is one part of the list.

What follows are sequences tested against T1, Hmlalpha2 (UniProt P0CY09) (assay: PBM E-score (8-mer binding enrichment) (E-score (-0.5 to 0.5)); higher = stronger / more preferred TF binding; most listed sequences are background and not binding sites). Conditions: protein concentration: 200 nM; construct: GST-full length.
T1 sequence: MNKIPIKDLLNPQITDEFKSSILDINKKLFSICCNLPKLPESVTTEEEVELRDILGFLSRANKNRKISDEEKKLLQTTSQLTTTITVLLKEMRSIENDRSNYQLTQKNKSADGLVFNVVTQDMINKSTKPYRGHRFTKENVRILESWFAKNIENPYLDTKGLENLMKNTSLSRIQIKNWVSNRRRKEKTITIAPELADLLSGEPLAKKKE
Method in brief: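 Yeast transcription factors, full-length or as DNA-binding domains, were expressed with a GST tag using PURExpress in vitro transcription/translation. At about 100-200 nM they were applied to universal all-10-mer Agilent arrays, double-stranded by primer extension on fresh or once-stripped slides. Fluorescent anti-GST detected bound protein, and masliner normalised the scans. E-scores for ungapped eight-base words, pooled with reverse complements, came from the Universal PBM Analysis Suite.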
With ACGGAACG the “PBM E-score” value was 0.0167. With ATGGCTGC the “PBM E-score” value was -0.187. In the case of GTCTAGTA, the “PBM E-score” value is reported as 0.0962. With CCACAACG the “PBM E-score” value was -0.0345. In the case of TATCCGGA, the “PBM E-score” value is reported as -0.0417. For GCCGTAAA, the “PBM E-score” value was 0.0868. ATTCTTTA was tested, and the “PBM E-score” value was 0.169. For GCCATGCA, the “PBM E-score” value was 0.0965. With CATCCACG the “PBM E-score” value was 0.155. In the case of CCGGGGCG, the “PBM E-score” value is reported as -0.306. CAATCGTG was tested, and the “PBM E-score” value was 0.174. With AATCAGAC the “PBM E-score” value was -0.018. For CAGAGCTG, the “PBM E-score” value was -0.163. In the case of AGTCATAA, the “PBM E-score” value is reported as -0.0877. With CTGGGAAA the “PBM E-score” value was -0.249. In the case of GGAGAAAA, the “PBM E-score” value is reported as -0.135. TCATCTAA was tested, and the “PBM E-score” value was 0.0514. In the case of AGATGACA, the “PBM E-score” value is reported as 0.144. With GTATCTCA the “PBM E-score” value was 0.196. For GCGCGCTA, the “PBM E-score” value was 0.112. With AGATTGCG the “PBM E-score” value was -0.103. In the case of CACCGTCA, the “PBM E-score” value is reported as -0.131. For GGTCGAAC, the “PBM E-score” value was 0.0286. AAGGTCGA was tested, and the “PBM E-score” value was -0.0822. With GGTAGTAA the “PBM E-score” value was 0.103. For CATCAGTC, the “PBM E-score” value was -0.235. In the case of ACCTAGGC, the “PBM E-score” value is reported as -0.253. In the case of ACGCAGTG, the “PBM E-score” value is reported as 0.0248. For ACCCCAAC, the “PBM E-score” value was 0.0203. With ACGTGGAT the “PBM E-score” value was 0.0823. With CCGAATAG the “PBM E-score” value was -0.0923. In the case of ACAAAGAC, the “PBM E-score” value is reported as 0.216. CTCTAAGC was tested, and the “PBM E-score” value was -0.106. For GCTGTGTA, the “PBM E-score” value was 0.437. With CCCCCTCA the “PBM E-score” value was -0.371. With CATAGGGA the “PBM E-score” value was -0.0755. With ATGCGAGC the “PBM E-score” value was -0.139. In the case of CCACACTC, the “PBM E-score” value is reported as -0.139. ACTCTGCT was tested, and the “PBM E-score” value was -0.142. For ACACTTTC, the “PBM E-score” value was -0.0806. GCACGTAC was tested, and the “PBM E-score” value was -0.0476. With ATACAAAA the “PBM E-score” value was 0.234. With ATATATAA the “PBM E-score” value was 0.199. CCTTTTAG was tested, and the “PBM E-score” value was -0.0972. With AAATTGAC the “PBM E-score” value was 0.238. In the case of CCCGTATA, the “PBM E-score” value is reported as -0.0109. With ATGTCTCA the “PBM E-score” value was 0.0532. With ACTGTGTA the “PBM E-score” value was 0.443. In the case of ATATTTTG, the “PBM E-score” value is reported as -0.025. In the case of AGTTACTC, the “PBM E-score” value is reported as 0.0812. ACGCTATA was tested, and the “PBM E-score” value was 0.0242. With TTCCCGAA the “PBM E-score” value was -0.0789. With TCCTACGA the “PBM E-score” value was -0.133. For AAGCTCTC, the “PBM E-score” value was -0.153. In the case of AGTGGGGA, the “PBM E-score” value is reported as -0.191. For CCACAACA, the “PBM E-score” value was 0.0233. With GAGTCACA the “PBM E-score” value was 0.00056. In the case of ACATGGAA, the “PBM E-score” value is reported as 0.317. For ACACCGGT, the “PBM E-score” value was -0.0298. With CGACCAGC the “PBM E-score” value was -0.0858. With ACATTATC the “PBM E-score” value was 0.239. For CTAGGCAG, the “PBM E-score” value was -0.207. For AATTCCTA, the “PBM E-score” value was 0.128. For GTCGCAAA, the “PBM E-score” value was 0.0886. GGGAGGCA was tested, and the “PBM E-score” value was -0.231. With ATCCTCTC the “PBM E-score” value was -0.166. For AGGCTGTA, the “PBM E-score” value was 0.19. For ACAAAGAT, the “PBM E-score” value was 0.187. For CGTACCCC, the “PBM E-score” value was -0.139. CGTTCCGA was tested, and the “PBM E-score” value was -0.162. In the case of ACCGGGAT, the “PBM E-score” value is reported as -0.24. With AGTCATAC the “PBM E-score” value was -0.00735. ACCCTACG was tested, and the “PBM E-score” value was 0.0634. In the case of GCACATCC, the “PBM E-score” value is reported as -0.171. CGCTCCTC was tested, and the “PBM E-score” value was -0.265. For ACTGCCAT, the “PBM E-score” value was 0.0798. In the case of TAACCAGA, the “PBM E-score” value is reported as 0.149. For ACAATATA, the “PBM E-score” value was 0.241. CTCCAGTA was tested, and the “PBM E-score” value was -0.128. With CTATGCAA the “PBM E-score” value was 0.0816. For ACGGTACC, the “PBM E-score” value was -0.0955. In the case of ATGTACAA, the “PBM E-score” value is reported as 0.433. In the case of CAGCACGA, the “PBM E-score” value is reported as 0.0651. With GAACGGCA the “PBM E-score” value was -0.156. For AGTATGTG, the “PBM E-score” value was 0.115. In the case of GCCGCTAC, the “PBM E-score” value is reported as -0.261. CACGTAAC was tested, and the “PBM E-score” value was 0.196. GGGATTTA was tested, and the “PBM E-score” value was -0.0755. ATGAGCTA was tested, and the “PBM E-score” value was -0.0339. For AAGCTGTG, the “PBM E-score” value was 0.0414. GTTAAATA was tested, and the “PBM E-score” value was 0.277. In the case of ACCATCAT, the “PBM E-score” value is reported as -0.0447. With TAAGTCTA the “PBM E-score” value was -0.0997. In the case of ATGTAGTA, the “PBM E-score” value is reported as 0.391. With ATCAGCTC the “PBM E-score” value was -0.17. For GCACTGAA, the “PBM E-score” value was -0.173. CTTTAGGA was tested, and the “PBM E-score” value was -0.143. With TGTTGAAA the “PBM E-score” value was 0.37. CGGCCCCC was tested, and the “PBM E-score” value was -0.33. For CTAACCCA, the “PBM E-score” value was 0.0445. TGTGAGAA was tested, and the “PBM E-score” value was -0.0347. For GAGAGTCA, the “PBM E-score” value was -0.263. In the case of TCCACCCA, the “PBM E-score” value is reported as -0.218. For ACGGGATC, the “PBM E-score” value was 0.0332. With AATTGTGA the “PBM E-score” value was 0.194. For CGGAGTTC, the “PBM E-score” value was 0.0336. For AGTCCCAA, the “PBM E-score” value was -0.297. For AACATTCC, the “PBM E-score” value was 0.0723. CGATTCCA was tested, and the “PBM E-score” value was -0.168. AAGCGTCA was tested, and the “PBM E-score” value was 0.132. With GGTTAACC the “PBM E-score” value was -0.142. For GGCCGCCC, the “PBM E-score” value was -0.138. For AACCTTTG, the “PBM E-score” value was -0.0671. With ATGAAACC the “PBM E-score” value was 0.0645. For AGGTTACC, the “PBM E-score” value was 0.0838. CGAGGTTC was tested, and the “PBM E-score” value was -0.0786. For AATCCTAC, the “PBM E-score” value was -0.0218. In the case of AGTCCAGC, the “PBM E-score” value is reported as -0.161. With CATCAAGC the “PBM E-score” value was -0.116. For ATTCGGCA, the “PBM E-score” value was 0.0193. With CCATAACA the “PBM E-score” value was 0.333. For AGTCTTAA, the “PBM E-score” value was -0.0272. In the case of AGCGCGAC, the “PBM E-score” value is reported as -0.147. In the case of CCCAGAAC, the “PBM E-score” value is reported as -0.101. With ATTTCTAA the “PBM E-score” value was 0.0315. GTTGAGTA was tested, and the “PBM E-score” value was 0.289. With CTAGCTAA the “PBM E-score” value was -0.104. With ACCGCTCG the “PBM E-score” value was -0.17. ATTGGGTC was tested, and the “PBM E-score” value was -0.154. In the case of CGAGTCAC, the “PBM E-score” value is reported as -0.162. In the case of CCGCGAGA, the “PBM E-score” value is reported as -0.185. With GAGCGCAA the “PBM E-score” value was -0.216. TCGTATCA was tested, and the “PBM E-score” value was 0.0109. GCGGGTTA was tested, and the “PBM E-score” value was 0.151. For AGCAGAAG, the “PBM E-score” value was -0.123. For ACAGGCGC, the “PBM E-score” value was -0.0936. GAAGGATA was tested, and the “PBM E-score” value was 0.0374. With AAATTATC the “PBM E-score” value was 0.221. In the case of CGTTTGAC, the “PBM E-score” value is reported as 0.0383. For AGATTGAC, the “PBM E-score” value was 0.0388. GTGTAGGA was tested, and the “PBM E-score” value was 0.275. With GACGTAAC the “PBM E-score” value was 0.143. For ATTTATGA, the “PBM E-score” value was 0.067. In the case of ATCCTTTA, the “PBM E-score” value is reported as 0.0247. In the case of GTGTATGA, the “PBM E-score” value is reported as 0.262. With ACGGTTAA the “PBM E-score” value was 0.128. With ATGATCGG the “PBM E-score” value was -0.0619. AGAGGTAT was tested, and the “PBM E-score” value was 0.157. CACGCGAA was tested, and the “PBM E-score” value was 0.127. In the case of CACAAGTG, the “PBM E-score” value is reported as 0.0286. In the case of AATCTGCA, the “PBM E-score” value is reported as -0.0244. For CGCTCCGC, the “PBM E-score” value was -0.25. CCAGCACA was tested, and the “PBM E-score” value was -0.115. In the case of GTAGTGAA, the “PBM E-score” value is reported as 0.153. In the case of TAGGCTAA, the “PBM E-score” value is reported as -0.181. GAACAAAA was tested, and the “PBM E-score” value was 0.13. With CACTATCA the “PBM E-score” value was -0.116. For TCTTTGAA, the “PBM E-score” value was 0.037. With CCCACATA the “PBM E-score” value was -0.128. ACCCAGGA was tested, and the “PBM E-score” value was -0.0304. In the case of ATTTCTAG, the “PBM E-score” value is reported as 0.0369. AACCAAAA was tested, and the “PBM E-score” value was 0.0962. In the case of CAGTTCAA, the “PBM E-score” value is reported as -0.0276. With ATGACCTG the “PBM E-score” value was 0.0892. AAGAAAAA was tested, and the “PBM E-score” value was -0.0187. In the case of GCGCTGAA, the “PBM E-score” value is reported as -0.185. CGTTGCGA was tested, and the “PBM E-score” value was 0.0644. With ACGCACCG the “PBM E-score” value was 0.109. In the case of ATTACTGA, the “PBM E-score” value is reported as 0.165. CCTCAATA was tested, and the “PBM E-score” value was -0.132. TCCAAAGA was tested, and the “PBM E-score” value was 0.0194. In the case of CTACTGAG, the “PBM E-score” value is reported as -0.127.
